Experimental data reported in patent US20250114416A1, “ANTIVIRAL COMPOSITION CONTAINING GINSENG EXTRACT AND STEROID COMPOUND AS ACTIVE INGREDIENTS” (priority 2022, published 2025).

How the values were obtained:
Influenza A virus = conditions: examples using ginseng (Table 1); lung tissue of K18-ACE2 TG mice, oral, three days after infection; non-treated control = 100
SARS-CoV-2 virus = conditions: examples using ginseng (Table 1); lung tissue of K18-ACE2 TG mice, oral, three days after infection; non-treated control = 100

Structure (SMILES) | Relative virus titer Influenza A virus (Influenza A virus) | Relative virus titer SARS-CoV-2 virus (SARS-CoV-2 virus)
C[C@@H]1C[C@H]2[C@@H]3CCC4=CC(=O)C=C[C@]4(C)[C@@]3(F)[C@@H](O)C[C@]2(C)[C@@]1(O)C(=O)CO [Comparative Example 4, Dexamethasone] | 101 ± 1.9 | 101 ± 1.9
C[C@]12CCC(=O)C=C1CC[C@@H]1[C@@H]2[C@@H](O)C[C@@]2(C)[C@H]1CC[C@]2(O)C(=O)CO [Comparative Example 5, Hydrocortisone] | 102 ± 1.9 | 102 ± 1.9
C[C@]12C=CC(=O)C=C1CC[C@@H]1[C@@H]2[C@@H](O)C[C@@]2(C)[C@H]1CC[C@]2(O)C(=O)CO [Comparative Example 6, Prednisolone] | 103 ± 1.9 | 101 ± 1.9
C[C@]12C=CC(=O)C=C1CC[C@H]1[C@@H]3C[C@@H](O)[C@](O)(C(=O)CO)[C@@]3(C)C[C@H](O)[C@@]12F [Comparative Example 7, Triamcinolone] | 102 ± 1.9 | 101 ± 1.9
